According to PubChem BioAssay AID1159614 (National Center for Advancing Translational Sciences (NCATS), 2016):
Hit rate of the full screen: of about 45,000 compounds, about 65 (0.1%) were called active. The call rests on the fitted dose curve; in most records, active means well fitted activation curve with a large enough effect; inconclusive means small, poorly fitted or top-dose-only effect; inactive means no such curve, though single readings can be large or run the other way. This is one part of the list.

target: Galactocerebrosidase (Homo sapiens) (UniProt P54803); assay: A Novel Cell-Based Assay to Identify Small Molecules for B -Galactocerebrosidase; conditions: 145M-Twi-hGALC-G270D cells (Twitcher mouse brain line with human GALC G270D), HMU-beta-Gal fluorescence, 48 h; series mostly up to 57.5 µM; activation: at the top concentration; further: 0% is about no effect; nearly all actives have a fitted effect of over 65% in size
Procedure, shortened: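 Fluorogenic HMU-b-Gal hydrolysis (0.1 mM final, pH 5.2 citrate-phosphate with 1 mg/mL sodium taurocholate; carbonate stop buffer) measures mutant GALC activity after compound treatment of live 145M-Twi Twitcher brain cells stably carrying human GALC-G270D, with wild-type GALC line alongside; activation sought.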

UniProt P54803, sequence (P54803 whole entry, looked up): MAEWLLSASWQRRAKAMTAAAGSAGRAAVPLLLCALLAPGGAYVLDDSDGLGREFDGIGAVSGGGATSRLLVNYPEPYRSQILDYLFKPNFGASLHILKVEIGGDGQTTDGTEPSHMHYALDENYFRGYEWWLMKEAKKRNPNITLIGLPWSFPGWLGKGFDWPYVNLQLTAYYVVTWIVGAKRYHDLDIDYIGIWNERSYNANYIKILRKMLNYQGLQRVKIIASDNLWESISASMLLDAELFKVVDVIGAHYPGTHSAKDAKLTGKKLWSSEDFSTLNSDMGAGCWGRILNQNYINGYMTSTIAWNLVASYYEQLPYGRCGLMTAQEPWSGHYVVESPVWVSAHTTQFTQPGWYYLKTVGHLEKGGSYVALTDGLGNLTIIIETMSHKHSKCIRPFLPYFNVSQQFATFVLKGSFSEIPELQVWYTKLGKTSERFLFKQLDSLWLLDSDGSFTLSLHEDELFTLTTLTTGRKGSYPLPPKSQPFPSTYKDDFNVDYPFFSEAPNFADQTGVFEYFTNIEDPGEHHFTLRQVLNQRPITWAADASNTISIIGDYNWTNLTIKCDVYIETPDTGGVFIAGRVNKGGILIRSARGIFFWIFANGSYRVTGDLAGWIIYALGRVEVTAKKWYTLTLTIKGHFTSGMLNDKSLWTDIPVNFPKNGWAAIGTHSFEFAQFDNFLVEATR

activation, inactive:
COc1ccc(NC(=O)Cn2cnc3c(oc4ccccc43)c2=O)cc1OC -7.45%
CC(C)NC(=O)C1CCC(Cn2c(=O)c3sccc3n(CC(=O)NCc3ccccc3)c2=O)CC1 (stereo unspecified) -13.5%
CCOc1ccc(NC(=O)c2cnc(N3CCCCC3)c3ccccc23)cc1 -6.9%
CN(c1ccccc1)S(=O)(=O)c1nnc(NC(=O)c2ccccc2)s1 -17.6%
CC(C)n1cnc(S(=O)(=O)N2CCCC(C(=O)NCc3ccccc3Cl)C2)c1 (stereo unspecified) 3.87%
CCOC(=O)c1c(-c2ccccc2)csc1NC(=O)c1cc(-c2ccc(F)cc2)on1 -15%
O=C(NCc1ccc2c(c1)OCO2)c1ccc2c(c1)N(Cc1ccccc1)C(=O)c1ccccc1S2=O (stereo unspecified) 29.6%
Cc1ccsc1CN(C(=O)c1oc2cc(Br)ccc2c1C)C1CCS(=O)(=O)C1 (stereo unspecified) 2.48%
Cc1cc(C(=O)Nc2ccc(C(C)C)cc2)c2c(C)nn(-c3ccccc3)c2n1 6.87%
COC(=O)Cn1c(=O)c2cccn2c2cccnc21 -10.3%
CCOc1ccc(C(=O)c2c(N)c(-c3nc(-c4ccc5c(c4)OCO5)cs3)c3ccccn23)cc1 -6.07%
COc1ccc(Cn2c(=O)c3oc4ccccc4c3n(Cc3cccc(C)c3)c2=O)cc1 -16.1%
CCOc1ccccc1NC(=O)Cn1cc(C(=O)c2ccc(Cl)cc2)c(=O)c2ccc(C)nc21 -28.4%
COc1ccccc1CNc1ccc(-c2nc(-c3ccco3)no2)cc1[N+](=O)[O-] -1.5%
Cc1cccc2c(=O)cc(CSc3ccccc3NC(=O)c3cccc(F)c3)[nH]c12 -16.2%
CN(C)CCCN(C(=O)c1ccc2c(c1)OCCO2)c1nc2ccccc2s1 -28.1%
COc1cccc(CNC(=O)CSc2c3c(nc4cc(Cl)ccc24)CCCC3)c1 -10.1%
CCCCOc1ccc(CNC(=O)c2cnc3sc(N4CCOCC4)nn3c2=O)cc1 -6.43%
COc1cccc(OCc2nc3ccccc3n2CCOc2ccccc2C)c1 -11.8%
O=C(C1CC1)N1CCN(c2nc3ccc(F)cc3s2)CC1 -11.3%
Cn1c(=O)c2c(nc(NCc3ccccc3)n2Cc2ccccc2Cl)n(C)c1=O -9.14%
CN(C)S(=O)(=O)c1ccc2c(c1)nnn2CCNC(=O)Nc1ccc(Br)cc1 -11.3%
Cc1ccc(C)c(Nc2nn3c(=O)c4ccc(C(=O)NC5CCCCC5)cc4nc3s2)c1 -7.08%
Cc1ccc(C(=O)NCC(c2cccnc2)N2CCc3ccccc32)cc1C (stereo unspecified) -17.7%
COc1ccc(CCNC(=O)CCCCn2c(=O)c3ccccc3n(Cc3ccc(F)cc3Cl)c2=O)cc1OC -10.4%
Cn1nnc2c(C(N)=O)ncn2c1=O -13.8%
Cc1cccc(CN2CCc3nc(N4CCN(c5ccccn5)CC4)ncc3C2)c1 5.29%
Cc1c(-c2nsc(NC(=O)c3cccs3)n2)nnn1-c1ccc(Br)cc1 -10.3%
CCC1CN(C(=O)Nc2cc(C)cc(C)c2)c2ccccc2O1 (stereo unspecified) -6.48%
Cc1cc(NC(=O)c2cc(-c3ccc(Cl)cc3)on2)nn1Cc1ccc(Cl)cc1 1.74%
CCc1ccc(NC(=O)Cn2c(=O)n(CCC(=O)NCc3ccc4c(c3)OCO4)c(=O)c3ccccc32)cc1 -6.57%
Cc1c(C)n(Cc2ccccc2)c2ccc(C(=O)NCc3ccco3)cc12 -3.1%
COc1cccc(-n2c(SCc3ccccc3C)nc3c([nH]c4ccccc43)c2=O)c1 -2.11%
CC(=O)c1ccc(NC(=O)CCc2c(C)nc3cc(-c4ccc(Cl)cc4)nn3c2C)cc1 -9.56%
Cc1ccc(C)c(NC(=O)CN(CCc2ccccc2)S(=O)(=O)c2ccccc2)c1 -14.8%
Cc1cccc(Cc2c(C)nc3nc(SCc4ccccc4C)nn3c2C)c1 -18.9%
COc1cccc(Cn2c(=O)n(-c3ccccc3C)c(=O)c3c2c2cc(C)ccc2n3C)c1 -3.97%
COc1cccc(NC(=O)C2CCN(C(=O)N3CC(C)Oc4ccccc43)CC2)c1 (stereo unspecified) -13.4%
O=C(NCc1ccccc1Cl)c1ccc2c(O)c(S(=O)(=O)c3ccccc3)c(=O)[nH]c2c1 -16.4%
COc1ccc(Cl)cc1C(=O)Nc1ccc(-c2nnc3n2CCCCC3)cc1 -26.8%
Cc1ccc(CNC(=O)CN2C(=O)C3CCCCN3c3ccc(C(=O)N4CCCC4)cc32)cc1 (stereo unspecified) -10.1%
CCOc1ccc(NC(=O)Cn2nnc(C(=O)Nc3ccc(OCC)cc3)c2N)cc1 -12.2%
CC(C)CCNC(=O)[C@@H](c1ccccc1)N1Cc2ccccc2C1=O 2.14%
CCOC(=O)C1=C(CS(=O)(=O)c2ccc(F)cc2)NC(=O)NC1c1ccc(OCC)c(OC)c1 (stereo unspecified) 5.89%
CCc1nn(CC(=O)NC(C)c2ccccc2)c(=O)c2cc3sccc3n12 (stereo unspecified) -19.9%
Cc1cc(C)cc(OCC(=O)NCC2(N(C)C)CCCCC2)c1 -10.4%
Cc1ccc(C)c(N2CCN(c3cc(C)nc4c(-c5ccc(Cl)cc5)c(C)nn34)CC2)c1 -20%
O=C(COc1ccccc1-c1nc(-c2ccccc2)no1)Nc1ccccc1[N+](=O)[O-] -10.7%
CCCc1cc(=O)n2[nH]c(NCc3ccccc3OC)nc2n1 -9.68%
Cc1ccc(S(=O)(=O)N2CCC(c3ccncc3)CC2)c(C)c1 -5.65%
CC(C)(C)CC(C)(C)c1ccc(OCCOCC[N+](C)(C)Cc2ccccc2)cc1 -1.92%
Cc1cc(C)cc(Nc2sc(C(=O)c3ccccc3)c(N)c2S(=O)(=O)c2ccccc2)c1 -5.82%
CCOC(=O)c1c(C)oc2nc(C)nc(NCc3ccccc3OCC)c12 -6.32%
CCOC(=O)c1ccc(NC(=O)C(Cc2ccccc2)NS(=O)(=O)c2ccc(Br)s2)cc1 (stereo unspecified) -16.7%
COc1cc(OC)c(NS(=O)(=O)c2ccc3c(c2)NC(=O)CCS3)cc1Cl -27.5%
Cc1ccc(S(=O)(=O)NCCSc2nnnn2-c2ccc(Cl)c(C(=O)O)c2)cc1 -5.35%
O=C(NCc1ccccc1Cl)C1CCCN(c2ncnc3onc(-c4ccc(F)cc4)c23)C1 (stereo unspecified) -15.5%
CCCc1nc2ccccc2n2c(-c3cccc(C)c3)c3c(=O)n(C)c(=O)n(C)c3c12 -16.1%
CCOc1ccc(-c2cn3c(n2)sc2cc(C(=O)NCCCc4ccccc4)ccc23)cc1 -12.5%
Cc1nc2nc(SCc3ccc(F)cc3Cl)nn2c(C)c1Cc1ccccc1 1.99%
CCCCOc1ccc(C(=O)CCN2CCCCC2)cc1 -13.4%
CCC1CN(C(=O)N2CCC(C(=O)Nc3cc(C)ccc3C)CC2)c2ccccc2O1 (stereo unspecified) -40%
Cc1cccc(-c2cc(NC(=O)C(C)(C)C)n(-c3ccccc3)n2)c1 -11.9%
COc1cc(C2c3c(oc4ccccc4c3=O)C(=O)N2c2nncs2)cc(OC)c1OC (stereo unspecified) 8.83%
CCCCN(C)CCCNC(=O)CN1C(=O)COc2ccc(S(=O)(=O)N3CCOCC3)cc21 -8.84%
Cc1nc2nc(-c3ccc(Cl)cc3Cl)nn2c(C)c1CCC(=O)Nc1ccc(F)cc1 -8.15%
COc1cccc(N2CC(NC(=O)c3ccc4c(c3)OCO4)CC2=O)c1 (stereo unspecified) -7.77%
COc1ccc(-c2c(C)nn3c4c(cnc23)C(=O)CC(c2ccccc2)C4)cc1 (stereo unspecified) 7.02%
O=C(CS(=O)(=O)c1cccc2nsnc12)NCc1ccc(Cl)cc1 -27.4%
CC(NC(=O)c1ccc(Nc2nc3ccccc3n3nnnc23)cc1)c1ccccc1 (stereo unspecified) -8.12%
Cc1cc(C)c(NC(=O)CCCN2C(=O)COc3ccc(C)cc32)c(C)c1 -8.37%
COc1ccccc1N1CCN(S(=O)(=O)c2c(C)sc3ncn(CC(=O)Nc4ccc(C(F)(F)F)cc4)c(=O)c23)CC1 -3.38%
CC(=O)c1ccc(NC(=O)C2CCCN(S(=O)(=O)c3ccc4c(c3)CCCN4C(C)=O)C2)cc1 (stereo unspecified) -19.2%
O=C(Cn1ccc2cc(S(=O)(=O)N3CCCCC3)ccc21)NCCc1ccc(Cl)cc1 -4.78%
CCOC(=O)c1c(NC(=O)Cc2coc3cc(C)ccc23)sc2c1CCCC2 -6.75%
O=C(O)Cc1sc(Nc2ccccc2Cl)nc1-c1ccccc1 -13.7%
CCc1ccc(NC(=O)c2cc3nc(-c4ccc(C)cc4)cc(C(F)(F)F)n3n2)cc1 -11.4%
COC(=O)c1sc(NC(=O)c2cc3nc(-c4ccc(Br)cc4)cc(C(F)(F)F)n3n2)c(C(=O)OC)c1C -13.5%
COc1ccc(CCNC(=O)CN(c2cc(C(F)(F)F)ccc2Cl)S(C)(=O)=O)cc1 7%
Cc1ccc(OCC(=O)Nc2ccccc2C(=O)OCc2cc(=O)n3ccsc3n2)cc1C -16.8%
COc1ccccc1Nc1nn2c(=O)c3ccc(C(=O)N4CCCCC4)cc3nc2s1 -8.33%
Cc1cccc(C)c1N1CC(c2nc3ccccc3n2CC(=O)OC(C)C)CC1=O (stereo unspecified) -14.4%
CCOC(=O)c1cc(S(=O)(=O)N2CCN(c3cc(C)ccc3C)CC2)[nH]n1 -4.02%
COC(=O)c1ccc(NC(=O)C(=O)NCCc2sc(-c3cccc(F)c3)nc2C)cc1 -0.397%
COc1cc(-c2ccno2)ccc1S(=O)(=O)N1CCN(c2ccccc2F)CC1 0.339%
CCCN(CCC)C(=O)CSc1nc2ccccc2c(=O)n1Cc1ccco1 -9.18%
COc1ccc(CC(=O)NCc2nc3cccnc3n2Cc2ccc(C)cc2)cc1 2.79%
COc1ccc(NC(=O)CSc2nc3cc(OC)c(OC)cc3c3nc(-c4ccccc4)nn23)cc1Cl -19.7%
Fc1ccc(-c2cc(-c3ccccc3)c3c(n2)-c2cc(F)ccc2OC3)cc1 -4.99%
Cc1ccc(-c2c(C)n3c4c(=O)n(C)c(=O)n(C)c4nc3n2-c2cccc(O)c2)cc1 -16.3%
CC1CCN(S(=O)(=O)c2cc3c4c(c2)CC(=O)N4CCC3)CC1 -14.2%
COc1ccc(S(=O)(=O)NCC(c2ccco2)N2CCOCC2)cc1 (stereo unspecified) 10.3%
Cc1cc(C)cc(NC(=O)CSc2oc(-c3cccs3)nc2S(=O)(=O)c2ccccc2)c1 -27.4%
CC(=O)c1ccc(NC(=O)c2cn3c4c(ccc(Cl)c4c2=O)OC(C)C3)cc1 (stereo unspecified) -13.7%
CCC(=O)N1c2ccc(S(=O)(=O)N3CCN(c4ccccc4)CC3)cc2CC1C (stereo unspecified) -10.2%
COc1cc2c(=O)n(CCC(=O)NCC3CCCO3)c(=O)n(CC(=O)Nc3ccc(C)cc3)c2cc1OC (stereo unspecified) 4.88%
